# Assay results reported in the supplement of paper PMC8728848.
# Some of the results follow.
# B1: DC-ASGPR-short (Homo sapiens) (protein)
# chain: MTRTYENFQYLENKVKVQGFKNGPLPLQSLLQRLRSGPCHLLLSLGLGLLLLVIICVVGFQNSKFQRDLVTLRTDFSNFTSNTVAEIQALTSQGSSLEETIASLKAEVEGFKQERQAVHSEMLLRVQQLVQDLKKLTCQVATLNNNASTEGTCCPVNWVEHQDSCYWFSHSGMSWAEAEKYCQLKNAHLVVINSREEQNFVQKYLGSAYTWMGLSDPEGAWKWVDGTDYATGFQNWKPGQPDDWQGHGLGGGEDCAHFHPDGRWNDDVCQRPYHWVCEAGLGQTSQESH
# Assays:
# Assay in all cases: glycan array binding signal (z-score within array); higher = stronger binding
# Details in all cases: glycan notation: IUPAC condensed, linker removed
# GalNAc(b1-4)GlcNAc = molecular target: GalNAc(b1-4)GlcNAc
# In short: (§1)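 Columns mapping to the same glycan were averaged after glycan names were converted to IUPAC-condensed notation. The data come from 3228 arrays in the Consortium for Functional Glycomics database, limited to those with an available protein sequence. Binding is reported as a within-array Z-score averaged across arrays of one protein sequence and across linkers.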
# [1] = molecular target: GalNAc(b1-4)GlcNAc(b1-2)Man
# In short: as §1
# [2] = molecular target: GalNAc(b1-4)GlcNAc(b1-2)Man(a1-3)[GalNAc(b1-4)GlcNAc(b1-2)Man(a1-6)]Man(b1-4)GlcNAc(b1-4)GlcNAc
# In short: as §1
# [3] = molecular target: GalNAc(b1-4)GlcNAc(b1-3)GalNAc(b1-4)GlcNAc
# In short: as §1
# GalNAc(b1-4)GlcNAc6S = molecular target: GalNAc(b1-4)GlcNAc6S
# In short: as §1
# GalNAc(b1-6)GalNAc = molecular target: GalNAc(b1-6)GalNAc
# In short: as §1
# GalNAc3S(b1-4)GlcNAc = molecular target: GalNAc3S(b1-4)GlcNAc
# In short: as §1
# GalNAc3S(b1-4)GlcNAc3S = molecular target: GalNAc3S(b1-4)GlcNAc3S
# In short: as §1
# [4] = molecular target: GalNAc3S(b1-4)[Fuc(a1-3)]GlcNAc
# In short: as §1
# GalNAc4S6S(b1-4)GlcNAc = molecular target: GalNAc4S6S(b1-4)GlcNAc
# In short: as §1
# GalNAc6S(b1-4)GlcNAc = molecular target: GalNAc6S(b1-4)GlcNAc
# In short: as §1
# Glc(a1-4)Glc = molecular target: Glc(a1-4)Glc
# In short: as §1
# [5] = molecular target: Glc(a1-4)Glc(a1-4)Glc(a1-4)Glc
# In short: as §1
# Glc(a1-6)Glc(a1-6)Glc = molecular target: Glc(a1-6)Glc(a1-6)Glc
# In short: as §1
# [6] = molecular target: Glc(a1-6)Glc(a1-6)Glc(a1-6)Glc
# In short: as §1
# Glc(b1-4)Glc = molecular target: Glc(b1-4)Glc
# In short: as §1
# Glc(b1-6)Glc = molecular target: Glc(b1-6)Glc
# In short: as §1
# GlcA(b1-3)Gal = molecular target: GlcA(b1-3)Gal
# In short: as §1
# GlcA(b1-3)GlcNAc = molecular target: GlcA(b1-3)GlcNAc
# In short: as §1
# GlcA(b1-6)Gal = molecular target: GlcA(b1-6)Gal
# In short: as §1
# [7] = molecular target: GlcA3S(b1-3)Gal(b1-4)GlcNAc(b1-2)Man
# In short: as §1
# [8] = molecular target: GlcA3S(b1-3)Gal(b1-4)GlcNAc(b1-3)Gal(b1-4)Glc
# In short: as §1
# [9] = molecular target: GlcNAc(a1-3)Gal(b1-4)GlcNAc
# In short: as §1
# [10] = molecular target: GlcNAc(a1-4)Gal(b1-3)GlcNAc
# In short: as §1
# [11] = molecular target: GlcNAc(a1-4)Gal(b1-4)GalNAc
# In short: as §1
# [12] = molecular target: GlcNAc(a1-4)Gal(b1-4)GlcNAc
# In short: as §1
# [13] = molecular target: GlcNAc(a1-4)Gal(b1-4)GlcNAc(b1-3)Gal(b1-4)Glc
# In short: as §1
# [14] = molecular target: GlcNAc(a1-4)Gal(b1-4)GlcNAc(b1-3)Gal(b1-4)GlcNAc
# In short: as §1
# [15] = molecular target: GlcNAc(a1-4)Gal(b1-4)GlcNAc(b1-3)Gal(b1-4)GlcNAc(b1-3)Gal(b1-4)GlcNAc
# In short: as §1
# [16] = molecular target: GlcNAc(a1-4)Gal(b1-4)GlcNAc(b1-3)Gal(b1-4)[Fuc(a1-3)]GlcNAc(b1-3)Gal(b1-4)[Fuc(a1-3)]GlcNAc
# In short: as §1
# [17] = molecular target: GlcNAc(a1-6)Gal(b1-4)GlcNAc
# In short: as §1
# [18] = molecular target: GlcNAc(b1-2)Gal(b1-3)GalNAc
# In short: as §1
# [19] = molecular target: GlcNAc(b1-2)Man(a1-3)[GlcNAc(b1-2)Man(a1-6)]Man(b1-4)GlcNAc(b1-4)GlcNAc
# In short: as §1
# [20] = molecular target: GlcNAc(b1-2)Man(a1-3)[GlcNAc(b1-2)Man(a1-6)]Man(b1-4)GlcNAc(b1-4)[Fuc(a1-6)]GlcNAc
# In short: as §1
# [21] = molecular target: GlcNAc(b1-2)Man(a1-3)[GlcNAc(b1-4)][GlcNAc(b1-2)Man(a1-6)]Man(b1-4)GlcNAc(b1-4)GlcNAc
# In short: as §1
# [22] = molecular target: GlcNAc(b1-2)Man(a1-3)[GlcNAc(b1-4)][GlcNAc(b1-2)Man(a1-6)]Man(b1-4)GlcNAc(b1-4)[Fuc(a1-6)]GlcNAc
# In short: as §1
# [23] = molecular target: GlcNAc(b1-2)[GlcNAc(b1-4)]Man(a1-3)[GlcNAc(b1-2)Man(a1-6)]Man(b1-4)GlcNAc(b1-4)GlcNAc
# In short: as §1
binder,measurement,setting,value
B1,glycan array binding signal (z-score),GalNAc(b1-4)GlcNAc,4.38
same,glycan array binding signal (z-score),[1],3.01
same,glycan array binding signal (z-score),[2],1.98
same,glycan array binding signal (z-score),[3],4.52
same,glycan array binding signal (z-score),GalNAc(b1-4)GlcNAc6S,4.1
same,glycan array binding signal (z-score),GalNAc(b1-6)GalNAc,-0.274
same,glycan array binding signal (z-score),GalNAc3S(b1-4)GlcNAc,-0.273
same,glycan array binding signal (z-score),GalNAc3S(b1-4)GlcNAc3S,-0.272
same,glycan array binding signal (z-score),[4],-0.256
same,glycan array binding signal (z-score),GalNAc4S6S(b1-4)GlcNAc,-0.269
same,glycan array binding signal (z-score),GalNAc6S(b1-4)GlcNAc,2.27
same,glycan array binding signal (z-score),Glc(a1-4)Glc,-0.277
same,glycan array binding signal (z-score),[5],-0.27
same,glycan array binding signal (z-score),Glc(a1-6)Glc(a1-6)Glc,-0.277
same,glycan array binding signal (z-score),[6],-0.255
same,glycan array binding signal (z-score),Glc(b1-4)Glc,-0.286
same,glycan array binding signal (z-score),Glc(b1-6)Glc,-0.285
same,glycan array binding signal (z-score),GlcA(b1-3)Gal,-0.272
same,glycan array binding signal (z-score),GlcA(b1-3)GlcNAc,-0.28
same,glycan array binding signal (z-score),GlcA(b1-6)Gal,-0.263
same,glycan array binding signal (z-score),[7],-0.279
same,glycan array binding signal (z-score),[8],-0.268
same,glycan array binding signal (z-score),[9],-0.279
same,glycan array binding signal (z-score),[10],-0.287
same,glycan array binding signal (z-score),[11],-0.281
same,glycan array binding signal (z-score),[12],-0.273
same,glycan array binding signal (z-score),[13],-0.272
same,glycan array binding signal (z-score),[14],-0.267
same,glycan array binding signal (z-score),[15],-0.287
same,glycan array binding signal (z-score),[16],-0.266
same,glycan array binding signal (z-score),[17],-0.28
same,glycan array binding signal (z-score),[18],-0.279
same,glycan array binding signal (z-score),[19],-0.281
same,glycan array binding signal (z-score),[20],-0.291
same,glycan array binding signal (z-score),[21],-0.277
same,glycan array binding signal (z-score),[22],-0.283
same,glycan array binding signal (z-score),[23],-0.273
